Measured values: PubChem BioAssay AID1259407 (Chemical Carcinogenesis Research Information System (CCRIS), 2018)
“Also recorded” adds a separate entry of the source. Some entries of the source have several records that differ or are many. This list holds those alone. The rule behind the calls is not given here. There may be further records. Results that share an entry do not match, cause unknown; they may come from other doses, times, organisms or constructs than stated. Brackets tell where a record comes from. A, B and so on number the origins entry by entry. Counts like (3×) say how often a value occurs here.

System: CCRIS mutagenicity, Ames/micronucleus/aberration tests
Assay: CCRIS mutagenicity studies
[1] = Test System: MOUSE LYMPHOMA, Strain/Indicator: L5178Y (TK+/TK-), Metabolic Activation: NONE, Method: SUSPENSION/PLATE
[2] = Test System: MOUSE LYMPHOMA, Strain/Indicator: L5178Y (TK+/TK-), Metabolic Activation: RAT, LIVER, S-9, AROCLOR 1254, Method: SUSPENSION/PLATE
[3] = End Point: IN VITRO CHROMOSOMAL ABERRATIONS, Test System: CHL CELLS, Metabolic Activation: NONE

N[C@@H](CS)C(=O)O
mutagenic call (Test System: CHINESE HAMSTER V-79, Strain/Indicator: V-79/6-THIOGUANINE, Metabolic Activation: RAT, KIDNEY, S-9, Method: STANDARD PLATE): inactive; negative and active; positive

COc1cccc2c1cc([N+](=O)[O-])c1c(C(=O)O)cc3c(c12)OCO3
mutagenic call (End Point: IN VITRO MICRONUCLEUS, Test System: CHO (WBL) CELLS, Metabolic Activation: NONE): active; positive and inactive; negative
mutagenic call (End Point: IN VITRO MICRONUCLEUS, Test System: CHO CELLS, Metabolic Activation: NONE): inactive; negative and active; positive

Nc1nc(NO)c2[nH]cnc2n1
mutagenic call (Test System: AMES SALMONELLA TYPHIMURIUM, Strain/Indicator: TA98, Metabolic Activation: NONE, Method: PREINCUBATION): active; positive [study A] and inactive; negative [study B]
mutagenic call (Test System: AMES SALMONELLA TYPHIMURIUM, Strain/Indicator: TA98, Metabolic Activation: RAT, LIVER, S-9, KANECHLOR 500, Method: PREINCUBATION): active; positive [study A] and inactive; negative [study B]

CCCCC(CC)COC(=O)c1ccc(N(C)N=O)cc1 (stereo not drawn)
mutagenic call [1]: inactive; negative (2×) [study A]; also recorded: inactive; negative. reevaluation of results: negative [study B]

C=CC(=O)OCCOC(=O)C=C
mutagenic call [1]: active; positive [study A]; also recorded: active; positive. reevaluation of results: equivocal [study B]; also recorded: active; positive. reevaluation of results: equivocal [study C]
mutagenic call [2]: active; positive [study A]; also recorded: active; positive. reevaluation of results: equivocal [study B]

Nc1cccc2c(N)cccc12
mutagenic call (Test System: AMES SALMONELLA TYPHIMURIUM, Strain/Indicator: TA98, Metabolic Activation: HAMSTER, LIVER, S-9, AROCLOR 1254, Method: STANDARD PLATE): inactive; negative [0.3 to 333.3 µg/plate] and active; positive [1 to 3333.3 µg/plate]
mutagenic call (Test System: AMES SALMONELLA TYPHIMURIUM, Strain/Indicator: TA98, Metabolic Activation: HAMSTER, LIVER, S-9, Method: STANDARD PLATE): inactive; negative [0.3 to 333.3 µg/plate] and active; positive [1 to 3333.3 µg/plate]
mutagenic call (Test System: AMES SALMONELLA TYPHIMURIUM, Strain/Indicator: TA98, Metabolic Activation: MOUSE, LIVER, S-9, AROCLOR 1254, Method: STANDARD PLATE): inactive; negative [0.3 to 333.3 µg/plate] and active; positive [1 to 3333.3 µg/plate]
mutagenic call (Test System: AMES SALMONELLA TYPHIMURIUM, Strain/Indicator: TA98, Metabolic Activation: MOUSE, LIVER, S-9, Method: STANDARD PLATE): inactive; negative [0.3 to 333.3 µg/plate] and inactive; negative [1 to 3333.3 µg/plate] and active; positive [3.3 to 3333.3 µg/plate]
mutagenic call (Test System: AMES SALMONELLA TYPHIMURIUM, Strain/Indicator: TA98, Metabolic Activation: RAT, LIVER, S-9, AROCLOR 1254, Method: STANDARD PLATE): inactive; negative [0.3 to 333.3 µg/plate] and active; positive [1 to 3333.3 µg/plate]
mutagenic call (Test System: AMES SALMONELLA TYPHIMURIUM, Strain/Indicator: TA100, Metabolic Activation: HAMSTER, LIVER, S-9, AROCLOR 1254, Method: STANDARD PLATE): inactive; negative [0.3 to 333.3 µg/plate] and active; positive [1 to 3333.3 µg/plate] and inactive; negative [3.3 to 3333.3 µg/plate]
mutagenic call (Test System: AMES SALMONELLA TYPHIMURIUM, Strain/Indicator: TA100, Metabolic Activation: HAMSTER, LIVER, S-9, Method: STANDARD PLATE): inactive; negative [0.3 to 333.3 µg/plate] and active; positive [1 to 3333.3 µg/plate]
mutagenic call (Test System: AMES SALMONELLA TYPHIMURIUM, Strain/Indicator: TA100, Metabolic Activation: MOUSE, LIVER, S-9, AROCLOR 1254, Method: STANDARD PLATE): inactive; negative [0.3 to 333.3 µg/plate] and active; positive [1 to 3333.3 µg/plate] and inactive; negative [3.3 to 3333.3 µg/plate]
mutagenic call (Test System: AMES SALMONELLA TYPHIMURIUM, Strain/Indicator: TA100, Metabolic Activation: MOUSE, LIVER, S-9, Method: STANDARD PLATE): active; positive [1 to 1000 µg/plate] and inactive; negative [3.3 to 3333.3 µg/plate]
mutagenic call (Test System: AMES SALMONELLA TYPHIMURIUM, Strain/Indicator: TA100, Metabolic Activation: NONE, Method: STANDARD PLATE): inactive; negative [0.3 to 333.3 µg/plate] and active; positive [1 to 1000 µg/plate] and inactive; negative [3.3 to 3333.3 µg/plate]
mutagenic call (Test System: AMES SALMONELLA TYPHIMURIUM, Strain/Indicator: TA100, Metabolic Activation: RAT, LIVER, S-9, AROCLOR 1254, Method: STANDARD PLATE): inactive; negative [0.3 to 333.3 µg/plate] and active; positive [1 to 3333.3 µg/plate]
mutagenic call (Test System: AMES SALMONELLA TYPHIMURIUM, Strain/Indicator: TA100, Metabolic Activation: RAT, LIVER, S-9, Method: STANDARD PLATE): inactive; negative [0.3 to 333.3 µg/plate] and active; positive [1 to 3333.3 µg/plate]
mutagenic call (Test System: AMES SALMONELLA TYPHIMURIUM, Strain/Indicator: TA1537, Metabolic Activation: HAMSTER, LIVER, S-9, Method: STANDARD PLATE): inactive; negative [0.3 to 333.3 µg/plate] and active; positive [1 to 1000 µg/plate] and inactive; negative [3.3 to 3333.3 µg/plate]
mutagenic call (Test System: AMES SALMONELLA TYPHIMURIUM, Strain/Indicator: TA1537, Metabolic Activation: MOUSE, LIVER, S-9, AROCLOR 1254, Method: STANDARD PLATE): inactive; negative [0.3 to 333.3 µg/plate] and active; positive [3.3 to 3333.3 µg/plate]
mutagenic call (Test System: AMES SALMONELLA TYPHIMURIUM, Strain/Indicator: TA1537, Metabolic Activation: NONE, Method: STANDARD PLATE): inactive; negative [0.3 to 333.3 µg/plate] and inactive; negative [1 to 1000 µg/plate] and active; positive [3.3 to 3333.3 µg/plate]
mutagenic call (Test System: AMES SALMONELLA TYPHIMURIUM, Strain/Indicator: TA1537, Metabolic Activation: RAT, LIVER, S-9, AROCLOR 1254, Method: STANDARD PLATE): inactive; negative [0.3 to 333.3 µg/plate] and active; positive [1 to 3333.3 µg/plate]
mutagenic call (Test System: AMES SALMONELLA TYPHIMURIUM, Strain/Indicator: TA1538, Metabolic Activation: HAMSTER, LIVER, S-9, AROCLOR 1254, Method: STANDARD PLATE): inactive; negative [0.3 to 333.3 µg/plate] and active; positive [1 to 3333.3 µg/plate]
mutagenic call (Test System: AMES SALMONELLA TYPHIMURIUM, Strain/Indicator: TA1538, Metabolic Activation: HAMSTER, LIVER, S-9, Method: STANDARD PLATE): inactive; negative [0.3 to 333.3 µg/plate] and active; positive [1 to 3333.3 µg/plate] and inactive; negative [3.3 to 3333.3 µg/plate]
mutagenic call (Test System: AMES SALMONELLA TYPHIMURIUM, Strain/Indicator: TA1538, Metabolic Activation: RAT, LIVER, S-9, AROCLOR 1254, Method: STANDARD PLATE): inactive; negative [0.3 to 333.3 µg/plate] and inactive; negative [3.3 to 3333.3 µg/plate] and active; positive [3.3 to 3333.3 µg/plate]

C=CC(=O)OC
mutagenic call (Test System: CHINESE HAMSTER OVARY, Strain/Indicator: CHO-K1-BH4 (HGPRT), Metabolic Activation: NONE, Method: MONOLAYER): active; positive and inactive; negative
mutagenic call [1]: active; positive [study A]; also recorded: active; positive. reevaluation of results: positive [study B]

Nc1ccc2ccccc2c1N=Nc1ccccc1
mutagenic call [2]: inactive; negative [study A]; also recorded: inactive; negative. reevaluation of results: negative [study B]

C=CC(=O)OCCO
mutagenic call (End Point: In vitro chromosomal aberrations, Test System: Chinese hamster lung (CHL/IU) cells, Metabolic Activation: None): active; positive (structural changes). toxicity at 0.014 mg/ml; also recorded: active; positive (structural changes and ploidy). no dose-response relationship for ploi; also recorded: active; positive (structural changes and ploidy). toxicity at 0.014 mg/ml
mutagenic call (Test System: E. coli, Strain/Indicator: WP2uvrA/pKM101, Metabolic Activation: Rat, Liver, S9, Sodium phenobarbital and 5,6-benzoflavone (10%), Method: Preincubation): active; positive; also recorded: active; positive (results of two experimental tests)

Nc1cc2nc3ccccc3nc2cc1N
mutagenic call (Test System: AMES SALMONELLA TYPHIMURIUM, Strain/Indicator: YG1024, Metabolic Activation: NONE, Method: PREINCUBATION): active; positive and inactive; negative
mutagenic call (Test System: AMES SALMONELLA TYPHIMURIUM, Strain/Indicator: YG1029, Metabolic Activation: NONE, Method: PREINCUBATION): active; positive and inactive; negative

ClCBr
mutagenic call (End Point: IN VITRO CHROMOSOMAL ABERRATIONS, Test System: CHL CELLS, Metabolic Activation: RAT, LIVER, S-9, SODIUM PHENOBARBITAL AND 5,6-BENZOFLAVONE): inactive; negative [study A] and active; positive (structural changes) [study B]

O=c1[nH]cnc2c1ncn2[C@H]1CC[C@@H](CO)O1
mutagenic call [1]: active; positive [study A]; also recorded: active; positive. reevaluation of results: positive [study B]
mutagenic call [2]: active; positive [study A]; also recorded: active; positive. reevaluation of results: equivocal [study B]

Cc1ccc(N)cc1N
mutagenic call (End Point: In vivo micronucleus, Test System: Micronucleated hepatocytes, Species: Rat, Strain/Sex: F344/Male, Route: Oral): inactive; negative and active; positive (p<0.05)

CC[n+]1c(-c2ccccc2)c2cc(N)ccc2c2ccc(N)cc21
mutagenic call [1]: inactive; negative [study A]; also recorded: active; positive. reevaluation of results: positive [study B]

CN(C)N
mutagenic call (Test System: AMES SALMONELLA TYPHIMURIUM, Strain/Indicator: TA1537, Metabolic Activation: NONE, Method: PREINCUBATION): inactive; negative [study A] and active; positive [study B]

[Cl][Ni][Cl]
mutagenic call (End Point: In vitro micronucleus, Test System: Human lymphocytes, Metabolic Activation: None): inactive; negative; also recorded: active; positive. ameliorated by addition of curcumin

CN(C)c1ccc(N)cc1
mutagenic call [3]: inactive; negative and active; positive (structural changes) (2×)

CC(Br)C(=O)O (stereo not drawn)
mutagenic call [3]: active; positive (structural changes) (2×); also recorded: inactive; negative; authors report equivocal structural changes at highest dose
